Reference: patent US20200040086A1 (BERLIN CHEMIE, published 2020)
Results are given in words; binding and its absence hold for the method and conditions named. For part of these data: In cells and extracts the contact can be indirect. Some results given as binding are weak or reduced against the parent protein; the word gives no strength.

What was measured:
VSGRLRIP = target: T1, VSGRLRIP; assay: peptide microarray of 8mer LY75 peptides
T1 sequence (peptide): VSGRLRIP

CYKVFHAE = target: T2, CYKVFHAE; assay: peptide microarray of 8mer LY75 peptides
T2 sequence (peptide): CYKVFHAE

KVFHAERI = target: T3, KVFHAERI; assay: peptide microarray of 8mer LY75 peptides
T3 sequence (peptide): KVFHAERI

IQYKGHCY = target: T4, IQYKGHCY; assay: peptide microarray of 8mer LY75 peptides
T4 sequence (peptide): IQYKGHCY

VKDCRSFK = target: T5, VKDCRSFK; assay: peptide microarray of 8mer LY75 peptides
T5 sequence (peptide): VKDCRSFK

FHAERIVR = target: T6, FHAERIVR; assay: peptide microarray of 8mer LY75 peptides
T6 sequence (peptide): FHAERIVR

KDCRSFKA = target: T7, KDCRSFKA; assay: peptide microarray of 8mer LY75 peptides
T7 sequence (peptide): KDCRSFKA

CRSFKALS = target: T8, CRSFKALS; assay: peptide microarray of 8mer LY75 peptides
T8 sequence (peptide): CRSFKALS

PASLSCYK = target: T9, PASLSCYK; assay: peptide microarray of 8mer LY75 peptides
T9 sequence (peptide): PASLSCYK

GHCYKSDQ = target: T10, GHCYKSDQ; assay: peptide microarray of 8mer LY75 peptides
T10 sequence (peptide): GHCYKSDQ

YKVFHAER = target: T11, YKVFHAER; assay: peptide microarray of 8mer LY75 peptides
T11 sequence (peptide): YKVFHAER

HPLLVSGR = target: T12, HPLLVSGR; assay: peptide microarray of 8mer LY75 peptides
T12 sequence (peptide): HPLLVSGR

PLLVSGRL = target: T13, PLLVSGRL; assay: peptide microarray of 8mer LY75 peptides
T13 sequence (peptide): PLLVSGRL

VFHAERIV = target: T14, VFHAERIV; assay: peptide microarray of 8mer LY75 peptides
T14 sequence (peptide): VFHAERIV

DCAAVKVF = target: T15, DCAAVKVF; assay: peptide microarray of 8mer LY75 peptides
T15 sequence (peptide): DCAAVKVF

NFHPLLVS = target: T16, NFHPLLVS; assay: peptide microarray of 8mer LY75 peptides
T16 sequence (peptide): NFHPLLVS

HRPWRRGW = target: T17, HRPWRRGW; assay: peptide microarray of 8mer LY75 peptides
T17 sequence (peptide): HRPWRRGW

FTYSRYPW = target: T18, FTYSRYPW; assay: peptide microarray of 8mer LY75 peptides
T18 sequence (peptide): FTYSRYPW

ERHFVSLC = target: T19, ERHFVSLC; assay: peptide microarray of 8mer LY75 peptides
T19 sequence (peptide): ERHFVSLC

CSERHFVS = target: T20, CSERHFVS; assay: peptide microarray of 8mer LY75 peptides
T20 sequence (peptide): CSERHFVS

SNFHPLLV = target: T21, SNFHPLLV; assay: peptide microarray of 8mer LY75 peptides
T21 sequence (peptide): SNFHPLLV

LLVSGRLR = target: T22, LLVSGRLR; assay: peptide microarray of 8mer LY75 peptides
T22 sequence (peptide): LLVSGRLR

DCRSFKAL = target: T23, DCRSFKAL; assay: peptide microarray of 8mer LY75 peptides
T23 sequence (peptide): DCRSFKAL

RLTYSSRC = target: T24, RLTYSSRC; assay: peptide microarray of 8mer LY75 peptides
T24 sequence (peptide): RLTYSSRC

AAVKVFHR = target: T25, AAVKVFHR; assay: peptide microarray of 8mer LY75 peptides
T25 sequence (peptide): AAVKVFHR

CYKSDQAL = target: T26, CYKSDQAL; assay: peptide microarray of 8mer LY75 peptides
T26 sequence (peptide): CYKSDQAL

VKVFHRPW = target: T27, VKVFHRPW; assay: peptide microarray of 8mer LY75 peptides
T27 sequence (peptide): VKVFHRPW

LVSGRLRI = target: T28, LVSGRLRI; assay: peptide microarray of 8mer LY75 peptides
T28 sequence (peptide): LVSGRLRI

TVKYLNNL = target: T29, TVKYLNNL; assay: peptide microarray of 8mer LY75 peptides
T29 sequence (peptide): TVKYLNNL

HFYDDREF = target: T30, HFYDDREF; assay: peptide microarray of 8mer LY75 peptides
T30 sequence (peptide): HFYDDREF

KSDQALHS = target: T31, KSDQALHS; assay: peptide microarray of 8mer LY75 peptides
T31 sequence (peptide): KSDQALHS

WEVKDCRS = target: T32, WEVKDCRS; assay: peptide microarray of 8mer LY75 peptides
T32 sequence (peptide): WEVKDCRS

VFHRPWRR = target: T33, VFHRPWRR; assay: peptide microarray of 8mer LY75 peptides
T33 sequence (peptide): VFHRPWRR

FHQHSILA = target: T34, FHQHSILA; assay: peptide microarray of 8mer LY75 peptides
T34 sequence (peptide): FHQHSILA

FHPLLVSG = target: T35, FHPLLVSG; assay: peptide microarray of 8mer LY75 peptides
T35 sequence (peptide): FHPLLVSG

DQALHSFS = target: T36, DQALHSFS; assay: peptide microarray of 8mer LY75 peptides
T36 sequence (peptide): DQALHSFS

HCYKSDQA = target: T37, HCYKSDQA; assay: peptide microarray of 8mer LY75 peptides
T37 sequence (peptide): HCYKSDQA

[1] = target: T38, LY75 tryptic peptide … (1030-1044) (human); assay: peptide pull down on LY75_A1 protein A beads, LC-MS/MS
T38 sequence (peptide): ELTYSNFHPLLVSGR

[2] = target: T39, LY75 tryptic peptide … (877 to 890) (human); assay: as above
T39 sequence (peptide): ISEWPIDDHFTYSR

[3] = target: T40, LY75 tryptic peptide … (1099-1109) (human); assay: as above
T40 sequence (peptide): QTLQNASETVK

[4] = target: T41, LY75 tryptic peptide … (896-910) (human); assay: as above
T41 sequence (peptide): FPVTFGEECLYMSAK

SRLTYSSR = target: T42, SRLTYSSR; assay: peptide microarray of 8mer LY75 peptides, LY75_A1 at 1 µg/mL, anti-human IgG Alexa 647
T42 sequence (peptide): SRLTYSSR

Measured: binding

B1: LY75_A1 (antibody, V domains shown)
VH: EVQLVESGGGLVKPGGSLRLSCAASGFTYSNAWMSWVRQAPGKGLEWVGRIKSKTDGGTTDYAAPVQGRFTISRDDSKNTLYLQMNSLKTEDTAVYYCTIFGVVSFDYWGQGTLVTVSS
VL: DVQMTQSPSSLSASVGDRVTITCRASQSISDYLSWYQQRPGKAPNLLIYAASNLKTGVPSRFSGSGSGTDFTLTISTLQPEDFATYYCQQSYRSPWTFGQGTKVEIKR
notes: detected with anti-human IgG in the microarray; also called antibody LY75_A1; LY75_A1 monoclonal antibody
binds: [1] | [2] | [3] | [4] | SRLTYSSR
no binding (tested: 1 µg/mL): all other assays above
